# According to PubChem BioAssay AID588579 (National Center for Advancing Translational Sciences (NCATS), 2011):
# Screen size: about 400,000 compounds; about 2,200 (0.55%) were called active. Not shown: some 1% with an inconclusive outcome. Calls follow the shape of the dose curve; as a rule, active = well fitted inhibition curve with a large enough effect; inconclusive = small, poorly fitted or top-dose-only effect, or another doubt; inactive = no such curve, though single readings can be large or run the other way. Only a part is listed here, and it is no random draw. A structure can be active in one record and inactive in another. Residues, ends and D or L forms follow the SMILES beside them.
# Biological target: DNA polymerase kappa (Homo sapiens) (UniProt Q9UBT6)
# Experiment: qHTS for Inhibitors of Polymerase Kappa
# Conditions: purified Pol kappa, fluorescent DNA synthesis assay, 10 min; series mostly up to 107 µM; activity, negative = inhibition: at the top concentration
# Summary of the method: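 Readout: fluorescence, taken kinetically at 0 and 10 min. Conditions: 10 nM Pol kappa, 15 min RT compound preincubation, 50 nM substrate final. Controls: enzyme-free buffer wells.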
# % is scaled to controls: 0 for no effect and ±100 for the full control effect; potency is read from the fitted curve at half-maximal effect.
# UniProt Q9UBT6, sequence (Q9UBT6 whole entry, looked up): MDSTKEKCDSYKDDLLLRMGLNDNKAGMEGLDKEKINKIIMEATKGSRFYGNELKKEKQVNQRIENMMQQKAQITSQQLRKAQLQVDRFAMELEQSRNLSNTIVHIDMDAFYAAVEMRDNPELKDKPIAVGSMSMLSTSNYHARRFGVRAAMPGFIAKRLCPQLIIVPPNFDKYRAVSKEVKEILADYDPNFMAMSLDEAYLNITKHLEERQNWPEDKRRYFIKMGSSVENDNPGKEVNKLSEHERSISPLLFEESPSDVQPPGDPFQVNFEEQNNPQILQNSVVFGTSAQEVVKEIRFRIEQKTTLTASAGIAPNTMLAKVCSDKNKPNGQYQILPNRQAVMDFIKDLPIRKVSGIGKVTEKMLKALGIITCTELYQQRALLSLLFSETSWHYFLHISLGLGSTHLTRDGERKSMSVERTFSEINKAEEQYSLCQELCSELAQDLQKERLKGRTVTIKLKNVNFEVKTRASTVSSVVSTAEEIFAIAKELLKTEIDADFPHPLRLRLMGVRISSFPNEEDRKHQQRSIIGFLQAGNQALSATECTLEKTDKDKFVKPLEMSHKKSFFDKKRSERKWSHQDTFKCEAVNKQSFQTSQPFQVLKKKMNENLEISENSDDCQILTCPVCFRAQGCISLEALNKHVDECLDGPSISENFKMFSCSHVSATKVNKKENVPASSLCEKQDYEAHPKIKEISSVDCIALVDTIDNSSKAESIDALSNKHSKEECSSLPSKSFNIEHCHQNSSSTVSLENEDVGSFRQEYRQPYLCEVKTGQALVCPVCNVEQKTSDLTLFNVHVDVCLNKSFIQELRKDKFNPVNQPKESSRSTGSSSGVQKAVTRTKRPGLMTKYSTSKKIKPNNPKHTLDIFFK
Compound,Potency,"activity, negative = inhibition"
Ic1ccc(N2CCN(Cc3c[nH]c4ncccc34)CC2)cc1,inactive,
COC(=O)C1C(O)CC[C@@H]2CN3CCc4c([nH]c5ccccc45)C3C[C@@H]12 (stereo partly specified),inactive,
COc1ccc(C2CC(=O)c3c(O)cc(O[C@H]4OC(COC5OC(C)C(O)C(O)[C@@H]5O)C(O)C(O)C4O)cc3O2)cc1O (stereo partly specified),,inactive: -10% [at 60.1 µM]
COc1ccc(C(=O)CSc2cc(C)[nH]c(=O)n2)cc1,active: 79.4 µM,
Nc1nc2ncc(CNc3ccc(C(=O)N[C@@H](CCC(=O)O)C(=O)O)cc3)nc2c(=O)[nH]1,inactive,
O=C(O)CCN1C(=O)/C(=C/c2cn(-c3ccccc3)nc2-c2cccs2)SC1=S,active: 89.1 µM,
Cc1cc(O)c(C=O)c2c1C(=O)Oc1c(CO)c(O)c3c(c1O2)C(O)OC3=O (stereo unspecified),active: 0.794 µM,
Cc1cc(NC(=O)Nc2ccc3c(ccn3C)c2)sn1,inactive,
O=C1OCCN1C(=O)[C@H]1[C@H](c2ccc(Cl)cc2)C(c2ccc(F)cc2)=NN1c1ccccc1,,inactive: -2.6%
Cc1cccc(C2=NN(c3ccc(Br)cc3)[C@@H](C(=O)N3CCOC3=O)[C@@H]2C)c1,,inactive: 0.309%
NCCCCCCCCCCNCCCN,,inactive: 10.6% [at 60.1 µM]
N[C@@H](Cc1cc(I)c(Oc2ccc(O)c(I)c2)c(I)c1)C(=O)O,inactive,
COc1cc2cc3c(N)c(C(=O)Nc4sc(C)c(C)c4C#N)sc3nc2cc1OC,active: 31.6 µM,
O=C(N/N=C/c1cccc(F)c1)c1cc(-c2ccco2)nc2ccccc12,active: 17.8 µM,
O=C(O)C1CSC(c2ccco2)N1 (stereo unspecified),active: 17.8 µM,
O=C1C=CC2=C3c4cc(O)c(O)cc4C[C@]3(O)COC2=C1,active: 7.08 µM,
O=C1C(=O)C(c2cc(O)c(O)c(O)c2)Oc2cc(O)cc(O)c21 (stereo unspecified),active: 1.26 µM,
H-SEIQLMHNLGKHLASVERMQWLRKKLQDVHNF-OH,,inactive: 17.8% [at 60.1 µM]
Cc1ccc(NC(=O)CN2C(=O)N/C(=C\c3ccco3)C2=O)cc1,,inactive: -15%
CCCCCc1c2c(cc(O)c1C(=O)O)OC(=O)c1c(cc(OC)cc1C(=O)CCCC)O2,,inactive: -4.26% [at 60.1 µM]
CCCN(CCC)CCCNC(=O)c1cc2c(=O)n(C)c3ccccc3c2n1C,,inactive: 26.2%
O=C(O)c1ccc2c(c1)[C@@H]1C=CC[C@@H]1[C@H](c1ccccn1)N2,active: 10 µM,

Compound,Potency,"activity, negative = inhibition"
COCCc1ccc(OC[C@H](O)CNC(C)C)cc1,,inactive: -7.31% [at 19.4 µM]
Oc1cc(O)c2c(c1)O[C@H](c1ccc(O)c(O)c1)[C@@H](O)C2,,inactive: -12.2% [at 19.4 µM]
C[C@H](/C=C/[C@@]1(O)[C@H](C)C[C@H](O)CC1(C)C)O[C@@H]1O[C@H](CO)[C@@H](O)[C@H](O)[C@H]1O,,inactive: 1.09%
CN(C)CCCN1c2ccccc2Sc2ccc(C(F)(F)F)cc21,inactive,
O=C(COC(=O)Cc1ccc(Cl)cc1)NCc1ccco1,active: 79.4 µM,
CC(=O)[C@]1(O)CCC2C3CC(C)C4=CC(=O)C=CC4(C)[C@@]3(F)C(O)C[C@]21C (stereo partly specified),,inactive: -0.7% [at 60.1 µM]
O=C1c2c(O)cccc2Cc2cccc(O)c21,inactive,
N=C(N)c1ccc(N=Nc2c(O)ccc3c2[nH]c2ccccc23)cc1,active: 79.4 µM,
OCCN1CCN(CC/C=C2/c3ccccc3Sc3ccc(C(F)(F)F)cc32)CC1,inactive,
O=C1CN(/N=C\c2ccc([N+](=O)[O-])o2)C(=O)N1,,inactive: -17.2% [at 12 µM]
COc1cc(C(CCN2CCOCC2)c2c(OC)cc(OC)c3c2OC(=O)CC3c2ccc(N(C)C)cc2)cc(OC)c1OC (stereo unspecified),,inactive: 11%
CC(=O)NC(CC(=O)O)C(=O)NC(CCC(=O)O)C(=O)O (stereo not drawn) (Ac-Asp-Glu-OH; configuration not given here),,inactive: 0.945% [at 60.1 µM]
CS[C@@H]1SC[C@H]2C(=O)N(C)C(C(C)C)C(=O)OC[C@@H](NC(=O)c3cnc4ccccc4n3)C(=O)N[C@@H](C)C(=O)N(C)[C@H]1C(=O)N(C)C(C(C)C)C(=O)OC[C@@H](NC(=O)c1cnc3ccccc3n1)C(=O)N[C@@H](C)C(=O)N2C (stereo partly specified),active: 21.2 µM,
COc1cc2c(Nc3ccc(NC(=O)c4ccccc4)cc3)ncnc2cc1OCCCN1CCOCC1,,inactive: -5.31%
OC[C@@H]1[C@@H](c2ccc(Cl)cc2)C(c2ccccc2)=NN1c1ccccc1,,inactive: -1.55%
Cc1cc(C)c(NC(=O)CN(c2ccccc2)S(=O)(=O)N(C)C)c(C)c1,,inactive: -29.6%
CC(=O)OCC1=C(C(=O)O)N2C(=O)C(NC(=O)COc3ccc(F)cc3)C2SC1 (stereo unspecified),active: 22.4 µM,
Oc1ccc(/C=C\c2cc(O)cc(O)c2)cc1,,inactive: -5.29% [at 12 µM]
O=C(O)c1cc(O)c2c(c1)[C@H]([C@H]1c3cc(C(=O)O)cc(O)c3C(=O)c3c(O[C@@H]4OC(CO)C(O)C(O)C4O)cccc31)c1cccc(O[C@@H]3OC(CO)C(O)C(O)C3O)c1C2=O (stereo partly specified),active: 0.891 µM,
CC(C)CN(C(=O)COC(=O)c1cc2c(s1)CCC2)C1CCS(=O)(=O)C1 (stereo unspecified),active: 39.8 µM,
O=Cc1c(Cl)cccc1Cl,inactive,
Cc1ccc(NC(=O)CCc2c(C)nn(-c3ccc(N4CCCCC4)nn3)c2C)cc1F,inactive,

Compound,Potency,"activity, negative = inhibition"
c1ccc2c(Nc3ccncc3)nc(-c3ccoc3)nc2c1,active: 28.2 µM,
CCNC(=O)[C@H]1O[C@@H](n2cnc3c(N)nc(NCCc4ccc(CCC(=O)O)cc4)nc32)[C@H](O)[C@@H]1O,,inactive: 14.1%
O=C(N/N=C/C=C/c1ccco1)c1cccnc1,,inactive: -42.1%
CCOC(=O)c1ccc(NC(=O)CSc2ccc(-c3ccccn3)nn2)cc1,,inactive: -18.4%
CC(=O)C[C@@H](O)CC(=O)[C@H]1OC(=O)CCCCCc2ccccc21,,inactive: 5.77%
COc1ccc(NC(=O)c2ccco2)cc1NC(=O)c1c(OC)cccc1OC,,inactive: -1.18%
c1ccc2c(c1)CCCC2C1=NCCN1 (stereo unspecified),inactive,
O=C(Cc1cnn(-c2ccccc2)c1)c1ccc(O)c(O)c1O,active: 2.51 µM,
Oc1ccc(NCc2ccc(OCc3ccccc3)cc2)cc1,,inactive: -15.5%
CCCC[C@@H](C)/C=C(C)/C=C(\C)C(=O)NC1=C[C@@](O)(/C=C/C=C/C=C/C(=O)NC2=C(O)CCC2=O)[C@@H]2O[C@@H]2C1=O,active: 26.7 µM,
COC(=O)[C@H]1[C@H]2CC3c4[nH]c5ccccc5c4CCN3C[C@@H]2CC[C@@H]1O (stereo partly specified),,inactive: -11.4% [at 19.4 µM]
Cc1cccc(C(=O)N=c2c(C#N)cc3c(=O)n4cccc(C)c4nc3n2Cc2ccco2)c1,active: 28.2 µM,
O=C(Nc1ccc2nc(-c3ccc4nc[nH]c4c3)[nH]c2c1)c1cccs1,active: 35.5 µM,
O=C(CSc1ncnc2sc3c(c12)CCC3)N1CCOCC1,active: 79.4 µM,
COc1ccccc1NCCC(=O)OCC(=O)NCc1ccco1,active: 79.4 µM,
CCN(CC)C(=O)CC(c1ccc(OC)cc1)c1c(OC)cc(OC)c2c(-c3ccccc3)cc(=O)oc12 (stereo unspecified),active: 79.4 µM,
COc1ccccc1[C@@H]1C(c2ccccc2)=NN(c2ccccc2)[C@H]1C(=O)N1CCOC1=O,,inactive: 6.09%
O=C(c1ccc(C(F)(F)F)cc1)N1CCC(=O)N(C(COCc2ccc(Cl)cc2)Cc2ccccc2)CC1 (stereo unspecified),,inactive: 4.5%
CCCCCCCCCCCCCCCC[n+]1ccc(/C=C/c2c[nH]c3ccccc23)c2ccccc21,,inactive: 95.3%
N#C/C(=C\c1ccc(O)c(O)c1)C(=O)Nc1ccccc1,,inactive: 0%
OC[C@H]1OC(O)[C@H](O)[C@@H](O)[C@@H]1O (stereo partly specified),,inactive: 19.2% [at 60.1 µM]
O=C(O)[C@H]1CCCN1,inactive,

Compound,Potency,"activity, negative = inhibition"
O=C1NC(=O)C(c2ccccc2[N+](=O)[O-])=C1Nc1ccc(O)c(Cl)c1,,inactive: -8.4%
COc1cc(OC)c2c(=O)cc(-c3ccccc3)oc2c1,,inactive: 24.5%
O=C(OCCc1ccccc1)c1cc(O)c(O)c(O)c1,active: 44.7 µM,
Cc1c(C(=O)OCCOC(C)C)[nH]c2c1C(=O)CC(c1ccco1)C2 (stereo unspecified),active: 79.4 µM,
O=C1Nc2ccccc2/C1=N\N=C\c1ccc(O)c(O)c1,active: 5.62 µM,
CC1OC(OCC2OC(Oc3c(-c4ccc(O)cc4)oc4cc(O)cc(O)c4c3=O)C(O)C(O)C2O)C(O)C(O)C1O (stereo unspecified),active: 28.2 µM,
CC[C@]1(O)CC2CN(CCc3c([nH]c4ccccc34)[C@@](C(=O)OC)(c3cc4c(cc3OC)N(C)[C@H]3[C@@](O)(C(=O)OC)[C@H](OC(C)=O)[C@]5(CC)C=CCN6CC[C@]43[C@@H]65)C2)C1 (stereo partly specified),inactive,
OCC1OC(O)C(O)C(O)C1O (stereo unspecified),,inactive: -3.12% [at 60.1 µM]
COC(=O)C1C(O)CC[C@H]2CN3CCc4c([nH]c5ccccc45)C3C[C@H]12 (stereo partly specified),,inactive: -8.89% [at 60.1 µM]
C=C1c2ccccc2O[C@H](C(=O)OCC)[C@@H]1C1CCCCC1,,inactive: -6.72%
CN(C)c1ccc(/C=C/c2nc3ccccc3s2)cc1,,inactive: -3.57%
COc1ccc(C2=Nn3c(nnc3-c3ccccc3OC)SC2)cc1OC1CCCC1,active: 39.8 µM,
COC1=CC(=O)C(C2CC(=O)c3c(O)cc(O)cc3O2)=CC1=O (stereo unspecified),active: 31.6 µM,
CC/C=C\C/C=C\C/C=C\C/C=C\C/C=C\CCCC(=O)O,,inactive: -1.43% [at 19.4 µM]
COc1ccc([C@@H]2CC(=O)c3c(O)cc(O[C@@H]4O[C@H](CO)[C@@H](O)[C@H](O)[C@H]4OC4O[C@@H](C)[C@H](O)[C@@H](O)[C@H]4O)cc3O2)cc1O (stereo partly specified),,inactive: 13.9% [at 60.1 µM]
Cc1c(O)ccc(/C=N/Nc2nc(-c3cccnc3)nc3ccccc23)c1O,,inactive: -24.8%
COc1ccc(/C=N/NC(=O)c2cc(O)c(O)c(O)c2)cc1Cn1cc([N+](=O)[O-])cn1,active: 3.98 µM,
Cc1c(C)c2c(c(C)c1O)CC[C@@](C)(CCC[C@@H](C)CCC[C@@H](C)CCCC(C)C)O2,inactive,
CN(C)c1ccc(-c2ccc([C@H]3[C@@H]4C=CCC[C@@]4(C)C(=O)N3Cc3ccccc3)c(F)c2)cc1,,inactive: -5.68%
CN(C)CC[C@H](c1ccc(Cl)cc1)c1ccccn1,,inactive: -4.81% [at 12 µM]
